Key:
[1] = target: T1, EphA2 ligand binding domain (LBD) (human, UniProt P29317 28-206); assay: NMR titration; 1H-15N HSQC of 15N-labelled VAPB protein (50 uM) with unlabelled NS5B or Eph protein added at different molar ratios (increment 0.5 for C-linker and Eph); 10 mM phosphate buffer pH 6.8, 25 C, 800 MHz; CSD tracings fitted with a one binding site model for residue-specific Kd; details: both partners purified
T1 construct: Cloned into pET32a; also called EphA2 LBD

[2] = target: T2, EphA5 ligand binding domain (LBD) (human, UniProt P54756 60-238); assay: as above; details: both partners purified
T2 construct: Cloned into pET32a; also called EphA5 LBD

B1: VAPB-MSP domain, MSP([…]) (domain or fragment)
chain: not shown
modifications: 15N-labelled
notes: human VAPB, N-terminal major sperm protein (MSP) domain, […]; amplified from HeLa cell cDNA library; Cloned into a modified pET32a vector; source: 15N-labelled in M9 medium
Kd [1]: 10.3 µM
Kd [2]: 66.2 µM
